# The whole screen tested about 350,000 compounds, of which about 31,000 (8.9%) were called active. The inconclusive results got no clear call from the source; some entries with a clear call stand among them for comparison. Calls come from the whole dose curve; as a rule, active = well fitted inhibition curve with a large enough effect; inconclusive = small, poorly fitted or top-dose-only effect; inactive = no such curve, though single readings can be large or run the other way. Potencies beside an inconclusive call are fits to weak or partial responses and may not hold up. Some structures have more than one record in an assay (separate samples or runs), and their calls can disagree.
# Target: Histone-lysine N-methyltransferase EHMT2 (Homo sapiens) (UniProt Q96KQ7)
# Test: qHTS Assay for Inhibitors of Histone Lysine Methyltransferase G9a; note: nearly all actives have a fitted effect of over 75% in size
# Details: G9a H3K9 monomethylation, AlphaScreen, 2 h; activity, negative = inhibition: at 59 µM (top of the series) unless noted
# Summary of the method: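 Compounds were preincubated with 20 nM G9a for 15 min, after which biotinylated H3K9 peptide (500 nM) and SAM (20 uM) started a 2 h room-temperature reaction. Monomethylated product was quantified by antibody-based AlphaScreen chemiluminescence.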
# % is set by controls: 0 for no effect and ±100 for the full control effect; potency is the fitted concentration of half-maximal effect; tags give direction and shape of the fitted curve.
# Chain of UniProt Q96KQ7 (Q96KQ7 whole entry, looked up): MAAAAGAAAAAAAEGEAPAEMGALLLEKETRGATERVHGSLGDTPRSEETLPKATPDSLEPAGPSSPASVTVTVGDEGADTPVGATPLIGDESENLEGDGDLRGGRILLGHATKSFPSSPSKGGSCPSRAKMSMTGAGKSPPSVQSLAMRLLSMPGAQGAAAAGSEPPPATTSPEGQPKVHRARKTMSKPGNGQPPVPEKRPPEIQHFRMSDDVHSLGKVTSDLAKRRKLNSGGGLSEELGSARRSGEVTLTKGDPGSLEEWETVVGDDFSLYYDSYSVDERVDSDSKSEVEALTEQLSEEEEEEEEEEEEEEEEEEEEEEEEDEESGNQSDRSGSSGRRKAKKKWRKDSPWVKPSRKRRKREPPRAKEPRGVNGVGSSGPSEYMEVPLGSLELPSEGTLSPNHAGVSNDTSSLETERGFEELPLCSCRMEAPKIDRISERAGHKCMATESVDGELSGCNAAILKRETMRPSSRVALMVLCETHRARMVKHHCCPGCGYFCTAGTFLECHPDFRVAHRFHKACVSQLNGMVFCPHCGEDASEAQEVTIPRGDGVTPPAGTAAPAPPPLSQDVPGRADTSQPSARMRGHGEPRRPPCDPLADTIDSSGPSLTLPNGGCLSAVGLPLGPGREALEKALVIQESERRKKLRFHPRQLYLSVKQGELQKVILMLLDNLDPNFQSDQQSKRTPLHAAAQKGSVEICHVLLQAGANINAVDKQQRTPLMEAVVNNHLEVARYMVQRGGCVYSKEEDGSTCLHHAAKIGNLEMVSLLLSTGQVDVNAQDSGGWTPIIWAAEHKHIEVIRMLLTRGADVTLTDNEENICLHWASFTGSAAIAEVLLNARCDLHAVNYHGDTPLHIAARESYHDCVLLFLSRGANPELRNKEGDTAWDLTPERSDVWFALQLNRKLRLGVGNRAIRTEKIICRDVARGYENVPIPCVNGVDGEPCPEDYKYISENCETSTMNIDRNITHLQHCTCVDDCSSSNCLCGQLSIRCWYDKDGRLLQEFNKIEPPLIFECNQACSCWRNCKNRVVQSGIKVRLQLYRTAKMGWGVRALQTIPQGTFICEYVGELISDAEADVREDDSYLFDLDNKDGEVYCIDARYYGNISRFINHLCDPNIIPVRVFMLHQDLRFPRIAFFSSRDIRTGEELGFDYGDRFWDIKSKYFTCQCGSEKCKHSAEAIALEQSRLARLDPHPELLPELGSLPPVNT
Structure (SMILES),"activity, negative = inhibition",Potency
COC(=O)c1ccccc1NC(=O)c1cc2sccc2n1C,inconclusive: -55% [inhibitor],–
COc1ccc(CC(NC(C)=O)C(=O)N2CCN(C(=O)N(C(C)C)C(C)C)CC2)cc1 (stereo unspecified),–,"inconclusive: 44.7 µM [inhibitor, partial curve, poor fit]"
COCCCNC(=S)N/N=C/c1ccc(OC)c(Br)c1,inactive: 27.4%,–
CCOc1cc(CN2CCc3c([nH]c4ccccc34)C2)ccc1OC,–,active: 11.2 µM
COc1ccc(NC(=O)CNc2cccc(S(=O)(=O)N3CCCCCC3)c2)c([N+](=O)[O-])c1,inactive: 17.1%,–
CCCN1C(=O)c2ccc(C(=O)NC3=NCCS3)cc2C1=O,–,"inconclusive: 17.8 µM [inhibitor, full curve, poor fit]"
O=C(NCc1ccc(Cl)cc1)C(=O)Nc1nccs1,–,active: 50.1 µM
CCN(CC)C(=O)CNC(=O)c1nn(-c2ccc(OC)c(Cl)c2)c(=O)c2ccccc12,–,"inconclusive: 89.1 µM [inhibitor, partial curve, poor fit]"
CN(C)c1ccc(N2CN=C3SCC(=O)N3C2)cc1,–,"inconclusive: 7.94 µM [inhibitor, full curve, poor fit]"
Cc1ccc(Cl)cc1N1CCN(C(=O)c2ccc3c(c2)N(Cc2ccc(F)cc2)CCS3)CC1,–,"inconclusive: 11.2 µM [inhibitor, partial curve, poor fit]"
CCOc1ccc(CCNC(=O)Cn2nc(CC)n3c(cc4ccccc43)c2=O)cc1,inactive: -3.59%,–
O=C(NC(=S)Nc1ccc(S(=O)(=O)N2CCCCC2)cc1)c1ccccc1,inactive: -0.802% [at 2.33 µM],–
COc1ccc(-c2c3c(=O)n(C)c(=O)n(C)c3c3n2-c2ccccc2NC3c2ccco2)cc1 (stereo unspecified),inactive: -26.5%,–
COc1cccc(Nc2nc(-c3sc(N)nc3C)cs2)c1,–,"inconclusive: 3.55 µM [inhibitor, partial curve, poor fit]"
CNC(=O)c1[nH]cnc1C(=O)NCC(=O)OC(C)(C)C,–,"inconclusive: 89.1 µM [inhibitor, single point]"
CCCOc1ccc(/C(O)=C2/C(=O)C(=O)N(CCCOC)C2c2ccncc2)cc1 (stereo unspecified),inactive: -2.96% [at 12.7 µM],–
CN(Cc1ccccc1)C(=O)c1ccc2c(c1)N(Cc1ccccc1Cl)C(=O)c1ccccc1S2,–,"inconclusive: 25.1 µM [inhibitor, partial curve, poor fit]"
OC(COc1ccc(CNCCc2ccc(C(F)(F)F)cc2)cc1)CN1CCCCC1 (stereo unspecified),–,"inconclusive: 3.98 µM [inhibitor, partial curve, poor fit]"
O=C(CN1C(=O)/C(=C\c2ccccc2F)SC1=S)Nc1nc2ccccc2s1,–,"inconclusive: 39.8 µM [inhibitor, single point]"
Cc1cc(O)c(-c2ccno2)cc1Cl,inactive: -5.73%,–
N#C/C(=C\c1ccc(OCc2ccc(Br)cc2)cc1)C(=O)Nc1cccc(C(=O)O)c1,–,"inconclusive: 70.8 µM [inhibitor, single point]"
COc1ccc(Cc2nnc(SCC(=O)Nc3ccccc3C)n(N)c2=O)cc1,–,"inconclusive: 79.4 µM [inhibitor, partial curve, poor fit]"
CCC(Sc1nc(-c2ccccc2F)nc2c1Cc1c(CO)cnc(C)c1O2)C(=O)Nc1cc(C)ccc1C (stereo unspecified),inactive: -2.64%,–
Cc1ccccc1CN1CCC(CNC(=O)c2c(C)oc3ncnc(N4CCCCC4)c23)CC1,inactive: -14.7%,–

Structure (SMILES),"activity, negative = inhibition",Potency
COC(=O)c1sccc1OC(C)C(C)=O (stereo unspecified),–,"inconclusive: 89.1 µM [inhibitor, single point]"
O=C(N/N=C/c1cccs1)c1ccccn1,–,active: 6.31 µM
O=C(O)c1ccc(N2CCCCS2(=O)=O)cc1,–,"inconclusive: 79.4 µM [inhibitor, single point]"
COc1ccc(/C(C)=N/Nc2ccc(F)cc2F)c(O)c1,–,active: 2.51 µM
Cc1[nH]c(=O)[nH]c(=O)c1/C=N/NC(=O)[C@@H](NC(=O)OC(C)(C)C)C(C)C,inconclusive: -52.4% [inhibitor],–
Oc1c(C=NCc2ccccc2)sc2ccccc12,–,"inconclusive: 35.5 µM [inhibitor, partial curve, poor fit]"
COc1ccc(-c2csc(N)n2)cc1,–,"inconclusive: 79.4 µM [inhibitor, partial curve, poor fit]"
CCOC(=O)C1CCN(S(=O)(=O)c2ccc3c(c2)N(C)C(=O)CC(=O)N3C)CC1,–,active: 79.4 µM
CC1(c2ccc(Cl)cc2)NC(=O)N(CC(=O)NC(=O)NCc2ccco2)C1=O (stereo unspecified),–,"inconclusive: 25.1 µM [inhibitor, single point]"
CC1C=C[C@@H]2[C@H](C1)C(=O)N(Cc1ccccc1)[C@H]2c1ccccc1Br (stereo partly specified),–,"inconclusive: 6.31 µM [inhibitor, single point]"
CN(Cc1nccn1C)C(=O)CC1C(=O)NCCN1Cc1ccccc1C(F)(F)F (stereo unspecified),–,active: 50.1 µM
NC(=O)CSc1nnc2sc3ccccc3n12,–,"inconclusive: 89.1 µM [inhibitor, single point]"
COc1ccccc1C(=O)NNC(=O)c1ccccc1[N+](=O)[O-],–,"inconclusive: 31.6 µM [inhibitor, single point]"
Cc1ccc(NC(=O)c2ccc(OC(F)F)cc2)cc1S(=O)(=O)N(C)C,inactive: 22.4%,–
COc1cccc(-n2c(COc3ccccc3C)nnc2SCC(=O)O)c1,–,active: 44.7 µM
Cc1cc(C(=O)NNS(=O)(=O)c2ccccc2C(F)(F)F)nn1C(C)(C)C,–,"inconclusive: 89.1 µM [inhibitor, partial curve, poor fit]"
Cc1ccc(Cl)cc1N1CCN(C(=O)c2ccc(CS(=O)(=O)c3ccccc3C)o2)CC1,inactive: -13.6%,–
CCCC(c1nnnn1Cc1ccco1)N1CCN(c2ccccc2)CC1 (stereo unspecified),–,"inconclusive: 50.1 µM [inhibitor, partial curve, poor fit]"
COc1cc(/C=C(\C#N)c2nc3ccccc3[nH]2)cc(OC)c1O,–,active: 10 µM
O=C(COC(=O)c1ccc(Br)o1)Nc1nc2c(F)c(F)c(F)cc2s1,–,"inconclusive: 50.1 µM [inhibitor, partial curve]"
CC(=O)c1c(C)[nH]c(C(=O)NCCN2CCC(C)CC2)c1C,inconclusive: -110% [inhibitor],–
CC(C)CC1(C)NC(=O)N(CCN2C(=O)c3ccccc3C2=O)C1=O (stereo unspecified),–,"inconclusive: 89.1 µM [inhibitor, partial curve, poor fit]"
CCc1nc2ccccc2n1CCC(=O)O,–,"inconclusive: 35.5 µM [inhibitor, single point]"
COc1ccc(CC(=O)Nc2c(C(=O)N3CCN(c4ccccc4OC)CC3)oc3ccccc23)cc1OC,–,active: 35.5 µM

Structure (SMILES),"activity, negative = inhibition",Potency
CCCc1cc(-c2n[nH]c(=S)n2C(C)c2ccccc2)cs1 (stereo unspecified),–,"inconclusive: 0.562 µM [inhibitor, full curve, poor fit]"
CCOc1cc2[nH]c(=O)n(Cc3ccc(C(=O)N4CCN(c5cccc(Cl)c5)CC4)cc3)c(=O)c2cc1OCC,inactive: 11.7%,–
COc1cc(C2NC(=O)c3c(sc4c3CCN(C)C4)N2)cc(OC)c1OC (stereo unspecified),–,"inconclusive: 10 µM [inhibitor, partial curve]"
Cc1ccc(Cl)cc1NS(=O)(=O)N1CCOCC1,–,"inconclusive: 44.7 µM [inhibitor, partial curve]"
O=C(Cc1ccc([N+](=O)[O-])cc1)NCc1ccccn1,inactive: 55.4% [at 12.7 µM],–
Cc1ccc2c(c1)C1CCCC3C1N2CC(=O)N3Cc1ccccc1 (stereo unspecified),–,"inconclusive: 14.1 µM [inhibitor, partial curve, poor fit]"
Cc1cc(C)c(C(=O)CSc2nnc(N)s2)c(C)c1,–,active: 25.1 µM
Cc1ccc(-c2[nH]c(-c3ccc(C(=O)O)cc3)nc2-c2ccccc2)cc1,–,"inconclusive: 28.2 µM [inhibitor, single point]"
COc1ccc(C2SCCN2C(=S)Nc2cccc(Cl)c2)cc1 (stereo unspecified),inactive: 5.12%,–
CC(C)CC(NC(N)=O)C(=O)OCC(=O)Nc1ccc(OC(F)F)cc1 (stereo unspecified),inactive: -6.87% [at 102 µM],–
CC(/C=N/n1c(-c2ccco2)n[nH]c1=S)=C\c1ccccc1,–,active: 1.26 µM
COc1cc(C2c3sc(=O)[nH]c3SC3C4CCC(C4)C23)ccc1O (stereo unspecified),–,active: 12.6 µM
CCOC(=O)c1c(C)c(-c2ccccc2)n(CC(=O)NC2CCCCC2)c1C,inactive: 16.5%,–
COc1ccc(N2CCN(C(=O)c3ccc(Cn4c(=S)[nH]c5ccc(N6CCOCC6)cc5c4=O)cc3)CC2)cc1,–,"inconclusive: 31.6 µM [inhibitor, partial curve, poor fit]"
CCc1ccc(NC(=O)c2cnc(SC)nc2C)cc1,inactive: 24.5% [at 102 µM],–
Cc1cc(C(=O)COC(=O)C2=NNC(=O)CC2)c(C)n1-c1ccc(OC(F)F)cc1,–,active: 50.1 µM
CN(C)CCCNC(=O)c1ccc(-c2nc(-c3ccc(Cl)cc3)cs2)cc1,–,"inconclusive: 70.8 µM [inhibitor, partial curve, poor fit]"
COCCCNc1nc2c([nH]1)c(=O)[nH]c(=O)n2C,inactive: -9.22% [at 102 µM],–
Cc1oc(-c2cccs2)nc1CN1CCN(C(C)C)C(CCO)C1 (stereo unspecified),inactive: -0.627% [at 102 µM],–
COc1ccccc1N1CC(C(=O)Nc2nnc(SCc3ccccn3)s2)CC1=O (stereo unspecified),–,"inconclusive: 39.8 µM [inhibitor, single point]"
Cc1cc(C)cc(C(=O)NC(CC(N)=O)c2ccc(NCCN3CCCC3)c([N+](=O)[O-])c2)c1 (stereo unspecified),–,"inconclusive: 89.1 µM [inhibitor, single point]"
Cc1[nH]c(C)c(S(=O)(=O)N2CCN(c3ccccc3)CC2)c1C(=O)N1CCCC1,–,active: 44.7 µM
CCSc1nc(-c2ccco2)ccc1C#N,–,"inconclusive: 3.55 µM [inhibitor, partial curve, poor fit]"

# From PubChem BioAssay AID504332 (National Center for Advancing Translational Sciences (NCATS), 2011)
